# Measurements taken from PubChem BioAssay AID686970 (National Center for Advancing Translational Sciences (NCATS), 2013).
# Screen size: about 360,000 compounds; about 6,000 (1.7%) were called active. Inconclusive results, whose numbers are uncertain, are shown with a selection of clear calls. Calls follow the shape of the dose curve; as a rule, active = well fitted cell-killing curve with a large enough effect; inconclusive = small, poorly fitted or top-dose-only effect, or effect the other way; inactive = flat fitted curve, though single readings scatter. Potencies of inconclusive entries are left out as doubtful fits.
# Assay: qHTS for induction of synthetic lethality in tumor cells producing 2HG: qHTS for the HT-1080-NT fibrosarcoma cell line;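 also: NT is the 2HG producing partner of a matched IDH1 knockdown line; nearly all actives have a fitted effect of over 55% in size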;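 as to activity, negative = less viability: 0% = DMSO-treated cells and -100% = media-only wells without cells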
# Conditions: HT-1080-NT fibrosarcoma viability, CellTiter-Glo ATP luminescence, 48 h; activity, negative = less viability: at 46.1 µM (top of the series) unless noted
# Outline: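 Read-out is CellTiter-Glo luminescence after 10 minutes at room temperature, following 48 hours' compound treatment of HT-1080-NT cells (750 cells/well, RPMI, 5% FBS, 37 degrees C).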
# Potency is read from the fitted curve at half-maximal effect; tags tell the direction and shape of the fitted curve.
Compound,Potency,"activity, negative = less viability"
Cc1ccc(-c2nc(-c3ccccn3)no2)cc1Cl,"inconclusive [cytotoxic, single point]",–
COC(=O)C1=C(C)NC(=O)NC1c1ccc(-c2ccccc2Cl)o1 (stereo not given),"inconclusive [cytotoxic, full curve, poor fit]",–
CCCCNCCOCCOc1ccc(Cl)cc1Br,"inconclusive [cytotoxic, single point]",–
CCOc1ccc(NS(=O)(=O)c2ccc(C(=O)NNC(=O)c3ccccc3O)cc2)cc1,"inconclusive [cytotoxic, single point]",–
COCCNC(=O)C1(C)CCCN(Cc2ccc(Cl)nc2)C1 (stereo not given),"inconclusive [rising, single point]",–
[O-][n+]1cccc2c(Br)cc(Br)c(O)c21,inactive,–
CCOC(=O)c1sc2nccc(OC)c2c1N=CNOC,inactive,–
Cc1ccc(NC(=O)C(OC(=O)c2ccc(NC(N)=O)cc2)c2ccccc2)cc1Cl (stereo not given),"inconclusive [cytotoxic, single point]",–
Cc1ccc(NC(=O)c2nnn(CC(=O)Nc3ccccc3)c2N)cc1C,"inconclusive [cytotoxic, single point]",–
CC1=[N+](C)c2c(ccc3cccnc23)C1(C)C,"inconclusive [cytotoxic, full curve]",–
COc1cc(/C=N/NC(=O)c2cc(-c3ccccc3Cl)nc3ccccc23)cc(OC)c1O,"inconclusive [cytotoxic, single point]",–
O=C(Nc1nnc(S(=O)(=O)N2CCCCC2)s1)c1ccc(Cl)cc1,inactive,–
C=CCc1ccc(OCC(O)CN2CCC(Cc3ccccc3)CC2)c(OC)c1 (stereo not given),"inconclusive [cytotoxic, single point]",–
O=C(/C=C/c1ccco1)Nc1scc(-c2ccccc2)c1C(=O)O,"inconclusive [cytotoxic, single point]",–
Cc1ccc(N(CC(=O)NCCc2ccc(F)cc2)S(=O)(=O)c2ccc(Cl)c([N+](=O)[O-])c2)c(C)c1,"inconclusive [cytotoxic, single point]",–
O=C(Nc1ccc2c(c1)CCC2)Nc1ccccc1F,inactive,–
COc1ccc(NC(=O)c2nnn(CC(=O)Nc3ccccc3OC)c2N)c(OC)c1,"inconclusive [cytotoxic, single point]",–
OC(c1cccc(CN2CCCCC2)c1)c1ncc(-c2cccc3ccccc23)[nH]1 (stereo not given),active: 16.4 µM,–
O=C1CNC(=S)N1CCOc1ccccc1,–,inconclusive: 30%
O=C(c1cc(C2CC2)on1)N1CCCC(N2CCN(c3ccc(F)cc3)CC2)C1 (stereo not given),inactive,–
Cn1c(=O)n(C)c2cc(NS(=O)(=O)c3ccc4c(c3)CCCC4)ccc21,"inconclusive [cytotoxic, partial curve, poor fit]",–
Cc1cccc(C)c1NC(=O)C(CCc1ccccc1)n1c(=O)c(-c2cc3ccccc3[nH]2)nc2ccccc21 (stereo not given),"inconclusive [cytotoxic, partial curve, poor fit]",–
Cc1ccnc(NC(=S)NC(=O)/C=C/c2ccco2)c1,"inconclusive [cytotoxic, partial curve]",–
CCOC(=O)N1CCN(C(=O)CCl)CC1,"inconclusive [cytotoxic, single point]",–

Compound,Potency,"activity, negative = less viability"
CC1(c2ccc3ccccc3c2)NC(=O)N(CC(=O)N2CCC(C(N)=O)CC2)C1=O (stereo not given),inactive,–
CC(C)CC(=NNC(=O)c1ccncc1)c1cc(Cl)ccc1O,"inconclusive [cytotoxic, full curve]",–
COC(=O)N/N=C/c1cccc(OCCSc2ccc(Cl)cc2)c1,"inconclusive [cytotoxic, single point]",–
O=C(CSc1ncnc2nc[nH]c12)c1ccccc1,"inconclusive [cytotoxic, single point]",–
COc1ccc(NC(=O)Cc2ccccc2)cn1,inactive,–
COC(=O)c1cc(NC(=O)Nc2cccc(Cl)c2)ccc1Cl,active: 12.6 µM,–
COc1ccccc1NC(=O)CN1CCN(CC(=O)Nc2ccc(OCc3ccccc3)cc2)CC1,"inconclusive [cytotoxic, partial curve]",–
CC(C)n1cc(CNC(=O)C2CCC(=O)N(Cc3ccccc3F)C2)cn1 (stereo not given),inactive,–
CN(C)c1ccc(NC(=O)c2sc(SCC(=O)Nc3ccc(Br)cc3)nc2N)cc1,inactive,–
Cc1cc(C)cc(-n2ncc3c2CCCC3NC(=O)C2(C(N)=O)CC2)c1 (stereo not given),"inconclusive [cytotoxic, single point]",–
O=C(Nc1ccc(Cl)cc1Cl)c1ccc(-c2ccccc2)cc1,"inconclusive [rising, single point]",–
Cn1c(=O)c2c(-c3ccccc3)n(CCCN3CCOCC3)cc2n(C)c1=O,inactive,–
C=CC(=O)NCC1OCCc2ccccc21 (stereo not given),–,inconclusive: 33.6%
Cn1nc(C(F)(F)F)c(C(=O)Nc2cccc(C(F)(F)F)c2)c1SCc1ccc(Cl)cc1,"inconclusive [cytotoxic, single point]",–
CC(=O)Nc1sc(C)c(C)c1C(=O)OCC(=O)Nc1cccc(C)c1,inactive,–
CCc1cc(-c2cnnn2Cc2ccccc2)ccc1-c1cn(CC(C)C)nn1,"inconclusive [cytotoxic, single point]",–
Cc1cccc(C(=O)OCC(=O)N2CCC(c3ccccc3)=N2)c1O,inactive,–
CCC1(c2ccc(F)cc2)NC(=O)N(CC(=O)NC2CCCC(C)C2C)C1=O (stereo not given),inactive,–
O=C(Nc1ccccc1Cl)c1cc(C2CCCN(C(=O)c3ccc4c(c3)CCO4)C2)on1 (stereo not given),–,inconclusive: -32.5% [cytotoxic]
CCN(CC)c1ccc2cc(-c3nc4ccccc4n3C)c(=O)oc2c1,"inconclusive [cytotoxic, full curve]",–
O=C(CSc1ncccn1)N1CCN(C(c2ccccc2)c2ccccc2)CC1,"inconclusive [rising, full curve]",–
Cc1nc(SCC(=O)NCC2CCCO2)c2cc(-c3ccccc3)sc2n1 (stereo not given),"inconclusive [cytotoxic, single point]",–
O=C1OC(c2ccccc2)(c2ccc3cc(O)ccc3c2)c2ccccc21 (stereo not given),active: 13 µM,–
O=C1NC[C@H](Cc2ccccc2)N(C[C@@H]2CCCN2C[C@H](Cc2ccc(O)cc2)N2C[C@H](Cc3ccccc3)N(CC3CCCCCC3)C(=O)C2=O)C1=O,"inconclusive [cytotoxic, single point]",–

Compound,Potency,"activity, negative = less viability"
COc1ccc2[nH]c3c(NCc4ccco4)ncnc3c2c1,"inconclusive [cytotoxic, single point]",–
Cc1ccc2nnn(Cc3cccc(C(C)(C)C)c3O)c2c1,"inconclusive [cytotoxic, single point]",–
Cc1cc(N2CCN(C(=O)c3ccco3)CC2)n2ncc(-c3ccccc3)c2n1,inactive,–
Cc1cc2nc(C3CCN(Cc4nnnn4Cc4ccccc4)CC3)[nH]c2cc1C,active: 2.51 µM,–
COc1ccc(CN(CCC(c2ccc(F)cc2)C2CCOC(C)(C)C2)C(=O)c2ccco2)cc1 (stereo not given),"inconclusive [cytotoxic, single point]",–
N#CCCn1cc(/C=N/O)c(-c2ccc(-c3ccccc3)cc2)n1,"inconclusive [cytotoxic, single point]",–
Cc1ccc(-c2noc(CCC(=O)Nc3ccccc3C)n2)cc1,–,inconclusive: -30.2% [cytotoxic]
COC(=O)c1nn(-c2ccccc2)c(Sc2ccc(Cl)cc2)c1/C=N/O,"inconclusive [cytotoxic, single point]",–
COc1cccc(-c2cnc3c(NC=O)cc(-c4ccc(O)c(OC)c4)cn23)c1,"inconclusive [cytotoxic, partial curve, poor fit]",–
CN(C)CCCn1c(=O)n(Cc2ccccc2)c(=O)c2c3c(sc21)CCCCC3,active: 16.4 µM,–
COc1cccc(CNC(=O)C2CCCN(S(=O)(=O)c3cccc4nonc34)C2)c1 (stereo not given),"inconclusive [cytotoxic, single point]",–
CC(=O)Nc1ccc(CC(=O)NCCC(c2ccccc2)c2ccccc2)cc1,active: 25.9 µM,–
COc1ccc(CCNC(=O)c2c(C)nc3ccccn23)cc1,"inconclusive [rising, full curve, poor fit]",–
CN=C1c2cc3cc(OC)ccc3n2CCN1Cc1ccccc1,active: 16.4 µM,–
Cc1cc(N2CCN(c3ccc(F)cc3)CC2)n2ncnc2n1,–,inconclusive: 35.5%
Oc1ccc(-c2csc(-c3ccccc3)n2)cc1O,active: 11.2 µM,–
Cc1ccc(NC(=O)c2sc3nc(CCl)[nH]c(=O)c3c2C)c(C)c1,"inconclusive [cytotoxic, single point]",–
O=C(c1ccco1)N1CCCC(c2nc3c(nnn3Cc3cccc(Cl)c3)c(=O)[nH]2)C1 (stereo not given),–,inconclusive: -36.2% [cytotoxic]
Cc1cc(Cl)c(OCCCNC2CCCC2)c(Br)c1,"inconclusive [cytotoxic, single point]",–
CCOC1=C2[C@@H](CN(S(=O)(=O)c3ccc(C)cc3)[C@H]2c2cccs2)[C@H]2C(=O)N(c3ccccc3)C(=O)[C@H]2C1,inactive,–
Cc1[nH]c(-c2ccc3c(c2)OCO3)nc1C(=O)O,"inconclusive [cytotoxic, partial curve]",–
CN(C)c1ccc(CNC(=O)C2(C)Cc3c(-c4ccc5c(c4)OCO5)ccnc3O2)cc1 (stereo not given),"inconclusive [cytotoxic, full curve]",–
